This note sets out measurements from patent US20200087367A1 (ACCELERON PHARMA, published 2020).

Broadly, the Kd is a measure of binding affinity in units of concentration. Read a high Kd as weaker binding. As a reminder, the koff is the first-order rate constant of dissociation. The low end stands for slow dissociation, the high end for fast dissociation.

In assay [1] the target is T1, BMP9 (human, UniProt Q9UK05 320-429).
T1 construct: also called hBMP-9; hBMP9
T1 sequence (looked up): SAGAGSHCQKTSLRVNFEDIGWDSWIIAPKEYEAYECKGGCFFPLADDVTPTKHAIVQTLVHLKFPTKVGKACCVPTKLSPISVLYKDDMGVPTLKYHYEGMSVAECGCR
Description: SPR kinetics. For orientation: SPR reads the build-up and loss of mass on a sensor chip optically.

For assay [2], the target named is T1, BMP9. Description: SPR kinetics; CHO-cell-derived protein.
Assay [3] deals with T2, BMP10 (human, UniProt O95393 317-424).
T2 construct: also called hBMP-10; hBMP10
T2 sequence: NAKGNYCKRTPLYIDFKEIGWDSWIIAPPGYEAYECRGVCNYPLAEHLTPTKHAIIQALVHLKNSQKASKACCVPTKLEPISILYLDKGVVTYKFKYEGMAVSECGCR
Description: SPR kinetics; CHO-cell-derived protein.

Assay [4] deals with T3, BMP2 (human, UniProt P12643 283-396).
T3 construct: also called hBMP-2
T3 sequence (looked up): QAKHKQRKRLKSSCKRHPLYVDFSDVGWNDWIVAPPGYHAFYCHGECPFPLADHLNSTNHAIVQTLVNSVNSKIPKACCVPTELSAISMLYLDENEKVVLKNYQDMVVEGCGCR
Description: SPR ligand screen; '-' = Binding undetectable.

Assay [5] concerns the target T4, BMP7 (human, UniProt P18075 293-431).
T4 construct: also called hBMP-7
T4 sequence (looked up): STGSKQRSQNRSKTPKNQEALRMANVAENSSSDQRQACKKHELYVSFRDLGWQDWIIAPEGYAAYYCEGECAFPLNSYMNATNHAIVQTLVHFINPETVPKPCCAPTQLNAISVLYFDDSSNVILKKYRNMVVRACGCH
Nature of the assay: SPR ligand screen; '-' = Binding undetectable.

The target of assay [6] is T5, hBMP-2/7 (human, UniProt P12643 283-396; P18075 293-431).
T5 sequence (looked up) 1: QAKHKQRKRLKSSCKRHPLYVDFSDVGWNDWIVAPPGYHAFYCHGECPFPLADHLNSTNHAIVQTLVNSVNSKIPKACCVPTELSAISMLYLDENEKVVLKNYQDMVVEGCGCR
T5 sequence (looked up) 2: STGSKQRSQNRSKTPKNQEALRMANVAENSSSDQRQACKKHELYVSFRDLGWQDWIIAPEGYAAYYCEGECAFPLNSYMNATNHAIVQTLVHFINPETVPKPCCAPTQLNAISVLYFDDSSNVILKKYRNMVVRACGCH
Nature of the assay: SPR ligand screen; '-' = Binding undetectable.

Assay [7] has as its target T6, TGF-β1 (human, UniProt P01137 fragment).
T6 construct: also called hTGF-β1
Description: SPR ligand screen; '-' = Binding undetectable.

Assay [8] deals with T7, TGF-β2 (human, UniProt P61812 303-414).
T7 construct: also called hTGF-β2
T7 sequence (looked up): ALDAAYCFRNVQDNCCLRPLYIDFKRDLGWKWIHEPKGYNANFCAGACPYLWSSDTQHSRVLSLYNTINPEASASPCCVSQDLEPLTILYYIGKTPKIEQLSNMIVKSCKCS
Description: SPR ligand screen; '-' = Binding undetectable.

Assay [9] addresses T8, TGF-β3 (human, UniProt P10600 301-412).
T8 construct: also called hTGF-β3
T8 sequence (looked up): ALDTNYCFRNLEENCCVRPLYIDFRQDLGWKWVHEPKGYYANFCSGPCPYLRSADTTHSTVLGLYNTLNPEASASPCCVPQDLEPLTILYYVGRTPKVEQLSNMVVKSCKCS
Nature of the assay: SPR ligand screen; '-' = Binding undetectable.

In assay [10] the target is T9, activin A (human, UniProt P08476 311-426).
T9 construct: also called hActivin A
T9 sequence (looked up): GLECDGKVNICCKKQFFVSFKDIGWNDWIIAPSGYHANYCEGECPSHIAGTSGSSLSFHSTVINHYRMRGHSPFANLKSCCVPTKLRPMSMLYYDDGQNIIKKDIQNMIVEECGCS
Description: SPR ligand screen; '-' = Binding undetectable.

The target of assay [11] is T3, BMP2. Nature of the assay: SPR (Biacore), captured ENG protein, soluble ligand; '-' = binding undetectable. The text has this:
(§1) Considered a co-receptor, ENG is widely thought to function by facilitating the binding of TGF-β1 and -3 to multi-protein complexes of type I and type II receptors. To investigate the possibility of direct ligand binding by isolated ENG, surface plasmon resonance (SPR) methodology (Biacore™ instrument) was used to screen for binding of captured proteins comprising the full-length extracellular domain of ENG to a variety of soluble human TGF-β family ligands.

Assay [12] deals with T4, BMP7. Described as above.
Source text: as §1

In assay [13] the target is T5, hBMP-2/7. Described as above.
Source text: as §1

The target of assay [14] is T6, TGF-β1. The description is as above.
T6 sequence (P01137 279-390 limits assumed): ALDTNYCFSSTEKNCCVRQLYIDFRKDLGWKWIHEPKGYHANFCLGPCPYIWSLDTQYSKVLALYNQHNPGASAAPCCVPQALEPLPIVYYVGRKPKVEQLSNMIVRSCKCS
Source text: as §1

Assay [15] addresses T7, TGF-β2. The description is as above.
Source text: as §1

Assay [16] has as its target T8, TGF-β3. The assay is described as above.
Source text: as §1

Assay [17] deals with T9, activin A. The assay is described as above.
Source text: as §1

Assay [18] addresses T2, BMP10. Description: SPR (Biacore), ligand amine-coupled to CM5 chip, Fc fusion injected.
The target of assay [19] is T1, BMP9. Described as above.
Assay [20] addresses T10, BMP6 (human, UniProt P22004 382-513, limits assumed).
T10 sequence (looked up): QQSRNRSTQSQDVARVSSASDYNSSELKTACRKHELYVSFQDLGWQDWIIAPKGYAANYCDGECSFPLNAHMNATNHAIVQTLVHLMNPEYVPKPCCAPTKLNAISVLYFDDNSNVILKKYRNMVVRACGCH
Described as above.

Assay [21] has as its target T11, BMP5 (human, UniProt P22003 317-454, limits assumed).
T11 sequence (looked up): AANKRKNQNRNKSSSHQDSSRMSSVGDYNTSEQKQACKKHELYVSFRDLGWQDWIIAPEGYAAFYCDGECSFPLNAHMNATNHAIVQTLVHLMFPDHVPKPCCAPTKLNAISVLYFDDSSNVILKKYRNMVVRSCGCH
The assay is described as above.

B1: hENG(26-346)-hFc (Fc fusion)
chain: ETVHCDLQPVGPERDEVTYTTSQVSKGCVAQAPNAILEVHVLFLEFPTGPSQLELTLQASKQNGTWPREVLLVLSVNSSVFLHLQALGIPLHLAYNSSLVTFQEPPGVNTTELPSFPKTQILEWAAERGPITSAAELNDPQSILLRLGQAQGSLSFCMLEASQDMGRTLEWRPRTPALVRGCHLEGVAGHKEAHILRVLPGHSAGPRTVTVKVELSCAPGDLDAVLILQGPPYVSWLIDANHNMQIWTTGEYSFKIFPEKNIRGFKLPDTPQGLLGEARMLNASIVASFVELPLASIVSLHASSCGGRLQTSPAPIQTTPPTG[human IgG1 Fc and a few adjoining residues not shown]
For B1, the “fold decrease of the BMP9 dissociation rate against the full-length construct hENG(26-586)-hFc” value in assay [1] came out at 10 fold. For the same molecule, the values for the Kd in assay [2] and in assay [3] were 0.0043 nM and 0.14 nM, respectively. The koff stood at 0.00024 s⁻¹ in assay [2] and 0.0028 s⁻¹ in assay [3]. The binding result in assay [4] was “no binding (tested: 100 nM)”; in assay [5], “no binding (tested: 100 nM)”; in [6] it was “no binding (tested: 100 nM)”; in assay [7] it was “no binding (tested: 100 nM)”; in assay [8], “no binding (tested: 100 nM)”; in assay [9], “no binding (tested: 50 nM)”. Besides, the binding result in assay [10] is listed as “no binding (tested: 100 nM)”.

B2: hENG(26-586)-hFc (Fc fusion)
chain: GAETVHCDLQPVGPERDEVTYTTSQVSKGCVAQAPNAILEVHVLFLEFPTGPSQLELTLQASKQNGTWPREVLLVLSVNSSVFLHLQALGIPLHLAYNSSLVTFQEPPGVNTTELPSFPKTQILEWAAERGPITSAAELNDPQSILLRLGQAQGSLSFCMLEASQDMGRTLEWRPRTPALVRGCHLEGVAGHKEAHILRVLPGHSAGPRTVTVKVELSCAPGDLDAVLILQGPPYVSWLIDANHNMQIWTTGEYSFKIFPEKNIRGFKLPDTPQGLLGEARMLNASIVASFVELPLASIVSLHASSCGGRLQTSPAPIQTTPPKDTCSPELLMSLIQTKCADDAMTLVLKKELVAHLKCTITGLTFWDPSCEAEDRGDKFVLRSAYSSCGMQVSASMISNEAVVNILSSSSPQRKKVHCLNMDSLSFQLGLYLSPHFLQASNTIEPGQQSFVQVRVSPSVSEFLLQLDSCHLDLGPEGGTVELIQGRAAKGNCVSLLSPSPEGDPRFSFLLHFYTVPIPKTGTLSCTVALRPKTGSQDQEVHRTVFMRLNIISPDLSGCTSKGTGGG[human IgG1 Fc not shown]
notes: also called full-length construct; Full Length
Regarding B2, the results for the Kd in assay [2] and in assay [3] were 0.033 nM and 0.49 nM, respectively. In addition, the koff in assay [2] is 0.0025 s⁻¹; in assay [3], 0.011 s⁻¹. For the same molecule, the binding result in assay [11], in assay [12], in assay [13], in assay [14], in assay [15] and in assay [16] was “no binding (tested: 100 nM)” in each case. Moreover, the binding result in assay [17] is “no binding (tested: 100 nM)”.

B3: ALK1-hFc (Fc fusion)
chain: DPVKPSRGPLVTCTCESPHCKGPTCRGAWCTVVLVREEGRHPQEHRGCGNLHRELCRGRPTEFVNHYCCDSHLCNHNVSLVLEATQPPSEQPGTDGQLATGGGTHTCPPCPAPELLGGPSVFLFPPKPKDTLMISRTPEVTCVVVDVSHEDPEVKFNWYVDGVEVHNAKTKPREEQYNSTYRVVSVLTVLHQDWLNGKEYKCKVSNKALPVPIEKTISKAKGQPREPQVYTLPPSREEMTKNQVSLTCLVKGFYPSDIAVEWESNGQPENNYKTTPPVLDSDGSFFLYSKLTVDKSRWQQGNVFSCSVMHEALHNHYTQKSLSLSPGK
notes: As purified from CHO cells
Regarding B3, the results for the Kd in assay [18] and in [19] were 0.0149 nM and 0.0314 nM, respectively. The binding result in assay [20] and in assay [21] was “no binding” each time.
